Reference: PubChem BioAssay AID602310 (National Center for Advancing Translational Sciences (NCATS), 2012)
About 310 (0.076%) of roughly 410,000 compounds were called active. Inconclusive means that the source gave no clear call. Such entries were picked first, then a sample of the others. Calls follow the shape of the dose curve; as a rule, active = well fitted curve in the direction sought with a large enough effect; inconclusive = small, poorly fitted or top-dose-only effect; inactive = flat fitted curve, though single readings scatter. Potencies beside an inconclusive call are fits to weak or partial responses and may not hold up.

The compounds below were run against DNA dC->dU-editing enzyme APOBEC-3G (Homo sapiens) (UniProt Q9HC16) (assay: qHTS for Inhibitors of Vif-A3G Interactions: qHTS). Settings: HeLa A3G-eYFP + Vif (tagged APOBEC3G with the HIV-1 protein that degrades it), YFP fluorescence, overnight; series mostly up to 46.1 µM.
Chain of UniProt Q9HC16 (Q9HC16 whole entry, looked up): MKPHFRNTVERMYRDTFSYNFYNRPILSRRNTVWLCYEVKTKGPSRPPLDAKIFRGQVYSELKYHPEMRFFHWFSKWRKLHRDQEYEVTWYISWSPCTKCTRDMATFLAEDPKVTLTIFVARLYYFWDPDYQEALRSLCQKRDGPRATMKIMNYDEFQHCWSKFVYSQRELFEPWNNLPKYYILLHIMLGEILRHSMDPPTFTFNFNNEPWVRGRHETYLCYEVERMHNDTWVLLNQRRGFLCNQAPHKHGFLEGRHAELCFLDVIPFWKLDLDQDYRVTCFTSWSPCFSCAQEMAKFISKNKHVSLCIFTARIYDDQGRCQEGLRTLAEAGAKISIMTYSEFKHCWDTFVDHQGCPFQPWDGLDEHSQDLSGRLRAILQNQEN
How it was run: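 Read-out is eYFP fluorescence (Ex 488/Em 500-530) from Vif-expressing HeLa A3G-eYFP cells; more signal means A3G escaped Vif-mediated degradation. Cells plated overnight, compound pinned in, incubated overnight at 37 deg C.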
Also: nearly all actives have a fitted effect of over 60% in size.
Potency is read from the fitted curve at half-maximal effect; tags tell the direction and shape of the fitted curve.

Q: How did the Potency turn out when `O=c1c(-c2ccccc2)c(O)c2ccccc2n1-c1ccccc1` was run?
A: The Potency was “inactive”.

Q: For `COc1cc(OC)cc(C(=O)Nc2nc(CC(=O)NCc3ccc(F)cc3)cs2)c1`, which Potency is on record?
A: The Potency was inconclusive: 12.6 µM [inhibitor, partial curve, poor fit].

Q: `N#Cc1c2c(c(Cl)n3c1nc1ccccc13)CCCC2` was tested. Which Potency did it give?
A: The Potency was inconclusive: 3.16 µM [inhibitor, single point].

Q: `CCOC(=O)C1=C(Nc2ccc(OC)cc2)C(N)=NC1=N` was tested. Which Potency did it give?
A: The Potency was inconclusive: 1.58 µM [inhibitor, full curve, poor fit].

Q: How did the Potency turn out when `CCN(Cc1ccccc1)c1ccc(/C=C/c2nccc3ccccc23)cc1` was run?
A: The Potency was inconclusive: 12.6 µM [inhibitor, partial curve, poor fit].

Q: Which Potency does the source give for `Cc1ccccc1Cn1c2ccccc2c2cnn(CC(=O)NCc3ccco3)c(=O)c21` here?
A: Its Potency is inconclusive: 10 µM [inhibitor, partial curve, poor fit].

Q: `COC(=O)c1ccc(-c2ccco2)n1Cc1nc(-c2ccc(OC)c(OC)c2)oc1C` was tested. Which Potency did it give?
A: The Potency was “inactive”.

Q: With `Cc1ccc(-n2nnnc2C(Cl)(Cl)c2nnnn2-c2ccc(C)cc2)cc1` as the compound, how does the Potency read?
A: Its Potency is “inactive”.

Q: `O=C(/C=C/c1ccco1)NC(=S)Nc1cccc(-c2nc3ccccc3s2)c1` was tested. Which Potency did it give?
A: Its Potency is inconclusive: 3.55 µM [inhibitor, full curve].

Q: With `CCOc1ccc(/C=C/c2nc(C#N)c(NCCc3ccccc3)o2)cc1` as the compound, how does the Potency read?
A: Its Potency is inconclusive: 5.01 µM [inhibitor, partial curve, poor fit].

Q: For `Cc1ccc(SC(CC(=O)c2ccc(C)cc2)C(=O)O)cc1` (centres undefined), which Potency is on record?
A: Its Potency is inconclusive: 28.2 µM [inhibitor, single point].

Q: For `Cc1nc(NC(=O)C2CC2)sc1C(=O)Nc1ccccc1Cl`, which Potency is on record?
A: The Potency was inconclusive: 22.4 µM [inhibitor, single point].

Q: `COc1ccccc1N1CCN(C(=O)c2cc(C(C)(C)C)oc2C)CC1` was tested. Which Potency did it give?
A: Its Potency is inconclusive: 11.2 µM [inhibitor, single point].

Q: With `COC(=O)c1c(NC(=O)CC2Nc3cc(C)c(C)cc3NC2=O)sc(C)c1C` (centres undefined) as the compound, how does the Potency read?
A: Its Potency is “inactive”.

Q: With `Cc1ccc(CN(Cc2ccco2)C(=O)COc2ccc(Cl)cc2)o1` as the compound, how does the Potency read?
A: Its Potency is “inactive”.

Q: Which Potency does the source give for `CCOC(=O)c1cc(-c2ccc(F)cc2)n(CCC(=O)NCCc2ccc(C)cc2)c1C` here?
A: The Potency was “inactive”.

Q: `c1cc2ccc3ccc(CN4CCOCC4)c4ccc(c1)c2c34` was tested. Which Potency did it give?
A: Its Potency is “inactive”.

Q: With `CCOc1ccc(N2C(=O)/C(=C/c3cc(OC)c(OC)c(OC)c3)N(CC(=O)OC)C2=S)cc1` as the compound, how does the Potency read?
A: The Potency was “inactive”.

Q: `CCOc1ccc(S(=O)(=O)Nc2cc(OC)ccc2OC)cc1` was tested. Which Potency did it give?
A: Its Potency is inconclusive: 0.316 µM [inhibitor, full curve, poor fit].

Q: With `COc1cccc(C2=CC(c3cccs3)n3nnnc3N2)c1` (centres undefined) as the compound, how does the Potency read?
A: The Potency was inconclusive: 3.98 µM [inhibitor, partial curve, poor fit].

Q: For `CCOc1ccc(S(=O)(=O)Nc2nc3ccccc3nc2Nc2ccc(OC)cc2)cc1`, which Potency is on record?
A: Its Potency is “inactive”.

Q: How did the Potency turn out when `NCCCn1c(C(=O)c2ccc(Cl)cc2)c2ccc([N+](=O)[O-])cc2[n+]1[O-]` was run?
A: Its Potency is inconclusive: 12.6 µM [inhibitor, partial curve].

Q: Which Potency does the source give for `CCN(CC(=O)NCc1ccc(F)cc1)C(=O)/C=C/c1ccc(OC)c(S(=O)(=O)NC(C)C)c1` here?
A: The Potency was active: 2.82 µM.

Q: Which Potency does the source give for `COc1ccc(NC(=O)CCc2nnc3n(CC(C)C)c(=O)c4ccccc4n23)cc1` here?
A: Its Potency is “inactive”.

Q: How did the Potency turn out when `NNC(=O)Cc1cccc2ccc(Cl)cc12` was run?
A: The Potency was inconclusive: 35.5 µM [inhibitor, single point].

Q: Which Potency does the source give for `CN1CCN(NC(=O)c2cc(-c3ccc(Br)s3)nc3ccccc23)CC1` here?
A: The Potency was inconclusive: 35.5 µM [inhibitor, single point].

Q: Which Potency does the source give for `COC(=O)Nc1nc(C)c(C(=O)c2ccccc2)s1` here?
A: The Potency was inconclusive: 7.94 µM [inhibitor, partial curve, poor fit].

Q: With `CCCc1nc2c3ccccc3ccn2c1Cc1ccccc1C(F)(F)F` as the compound, how does the Potency read?
A: Its Potency is inconclusive: 22.4 µM [inhibitor, single point].

Q: `COC(=O)c1cc(C(=O)N2CCN(c3cccc(Cl)c3)CC2)cc([N+](=O)[O-])c1` was tested. Which Potency did it give?
A: The Potency was inconclusive: 0.355 µM [inhibitor, full curve, poor fit].

Q: With `CC(C(Sc1ccccc1N)c1ccccc1)[N+](=O)[O-]` (centres undefined) as the compound, how does the Potency read?
A: The Potency was inconclusive: 35.5 µM [inhibitor, single point].

Q: With `COc1ccc(/C(N)=N/OC(=O)c2c(-c3ccccc3Cl)noc2C)cc1OC` as the compound, how does the Potency read?
A: The Potency was “inactive”.

Q: Which Potency does the source give for `CC(=O)Cc1nsc(NC(=O)c2ccc(-c3cccc(Cl)c3)o2)n1` here?
A: The Potency was inconclusive: 4.47 µM [inhibitor, full curve].

Q: Which Potency does the source give for `CCC1=Nc2cc(C(=O)NCc3cccnc3)ccc2Sc2ccc(C)cc21` here?
A: The Potency was inconclusive: 2.51 µM [inhibitor, full curve].

Q: How did the Potency turn out when `CCOc1ccc(Br)cc1C1C(C(=O)OC)=C(N)Oc2cc(N(C)C)ccc21` (centres undefined) was run?
A: Its Potency is inconclusive: 3.55 µM [inhibitor, full curve, poor fit].

Q: With `CCN(CC)c1ccc2cc(C(=O)c3cccs3)c(=O)oc2c1` as the compound, how does the Potency read?
A: Its Potency is inconclusive: 5.62 µM [inhibitor, single point].

Q: For `C/C(=N\NC(=O)c1cc(-c2ccncc2)nc2ccccc12)c1ccc(N2CCOCC2)cc1`, which Potency is on record?
A: The Potency was inconclusive: 8.91 µM [inhibitor, partial curve].

Q: For `O=C(Nc1ccc2oc(-c3ccncc3)nc2c1)c1ccc([N+](=O)[O-])o1`, which Potency is on record?
A: Its Potency is inconclusive: 22.4 µM [inhibitor, single point].

Q: How did the Potency turn out when `Cc1ccc(-c2cc(C(=O)N/N=C/c3ccoc3)c3ccccc3n2)cc1` was run?
A: Its Potency is inconclusive: 12.6 µM [inhibitor, single point].

Q: Which Potency does the source give for `CC(=O)Nc1sc2c(c1-c1nc3ccccc3s1)CN(C(C)C)CC2` here?
A: The Potency was active: 12.6 µM.

Q: How did the Potency turn out when `Cc1cc2c(c(=O)o1)C(CCC1CCCCC1)C(C#N)=C(N)O2` (centres undefined) was run?
A: Its Potency is inconclusive: 35.5 µM [inhibitor, single point].

Q: With `O=C(OCn1ncc(Br)c(Br)c1=O)c1ccccc1Cl` as the compound, how does the Potency read?
A: Its Potency is inconclusive: 4.47 µM [inhibitor, full curve, poor fit].

Q: Which Potency does the source give for `O=C(COc1ccc(F)cc1F)NNC(=O)Nc1cccc([N+](=O)[O-])c1` here?
A: The Potency was inconclusive: 35.5 µM [inhibitor, single point].

Q: With `CCOc1ccc(C(=O)Nc2cc(-c3nc4ccccc4s3)ccc2OC)cc1` as the compound, how does the Potency read?
A: Its Potency is inconclusive: 2.82 µM [inhibitor, single point].

Q: Which Potency does the source give for `CCOc1cc(S(=O)(=O)n2c(C)nc3ccccc32)ccc1F` here?
A: Its Potency is inconclusive: 35.5 µM [inhibitor, single point].

Q: `Nc1c(Cl)cc(C2=NCCn3nc4cc([N+](=O)[O-])ccc4c32)cc1Cl` was tested. Which Potency did it give?
A: Its Potency is inconclusive: 15.8 µM [inhibitor, single point].

Q: For `CCc1c(C)sc2c1CCN(C(=O)Nc1ccc(F)c(Cl)c1)C2c1ccc(F)cc1` (centres undefined), which Potency is on record?
A: The Potency was “inactive”.

Q: Which Potency does the source give for `O=S(=O)(NCCC1=CCCCC1)c1cccc2nsnc12` here?
A: The Potency was “inactive”.

Q: For `Cc1ccc2c(CC(=O)NCc3ccco3)coc2c1C`, which Potency is on record?
A: Its Potency is inconclusive: 10 µM [inhibitor, partial curve, poor fit].

Q: Which Potency does the source give for `CCN(CC)c1ccc(/C=C/C(=O)c2ccc(Br)cc2)cc1` here?
A: Its Potency is inconclusive: 17.8 µM [inhibitor, single point].

Q: For `O=C(OCc1ccc(Br)cc1)c1cnc(Cl)c(Cl)c1`, which Potency is on record?
A: Its Potency is inconclusive: 20 µM [inhibitor, single point].

Q: With `N#C/C(=C\c1ccc(Sc2ccccc2)o1)c1nc2ccccc2[nH]1` as the compound, how does the Potency read?
A: The Potency was inconclusive: 22.4 µM [inhibitor, single point].

Q: For `CCCCNC(=O)CN1CCN(Cc2ccc3cc(OC)ccc3c2)CC1`, which Potency is on record?
A: Its Potency is “inactive”.

Q: How did the Potency turn out when `CCc1ccc(-c2cc(C(=O)N3N=C(C(F)F)CC3(O)C(F)F)c3ccccc3n2)cc1` (centres undefined) was run?
A: The Potency was inconclusive: 35.5 µM [inhibitor, single point].

Q: With `COc1ccc(CCNC2=C(Cl)C(=O)N(CCc3ccc(OC)c(OC)c3)C2=O)cc1OC` as the compound, how does the Potency read?
A: Its Potency is inconclusive: 20 µM [inhibitor, single point].

Q: For `COc1cccc(C(=O)C[n+]2cccc3cc(OC)ccc32)c1`, which Potency is on record?
A: The Potency was inconclusive: 11.2 µM [inhibitor, partial curve, poor fit].

Q: Which Potency does the source give for `Cc1cccc2c1Sc1ccc(Cl)cc1CC2N1CCNCC1` (centres undefined) here?
A: The Potency was inconclusive: 20 µM [inhibitor, partial curve, poor fit].

Q: How did the Potency turn out when `CCC(C)Sc1ccc(-c2nc3ccc(C)cn3c2NCc2ccccc2)cc1` (centres undefined) was run?
A: The Potency was “inactive”.

Q: Which Potency does the source give for `COc1cc2c3nnc(-c4ccccc4)c-3cn(Cc3ccc(F)cc3)c2cc1OC` here?
A: The Potency was inconclusive: 35.5 µM [inhibitor, single point].

Q: Which Potency does the source give for `CCSC1(SCC)N=C(N)C2(C#N)C(c3ccc(F)cc3)C12C#N` (centres undefined) here?
A: Its Potency is inconclusive: 25.1 µM [inhibitor, single point].

Q: With `CCOc1cc(CNc2ccc3c(c2)OCCO3)cc(Br)c1OC` as the compound, how does the Potency read?
A: Its Potency is inconclusive: 1 µM [inhibitor, full curve, poor fit].

Q: How did the Potency turn out when `CCN(CC)c1ccc(/C=C(\C#N)C(N)=O)cc1` was run?
A: The Potency was “inactive”.

Q: `O=C(c1cccc([N+](=O)[O-])c1)c1ccccn1` was tested. Which Potency did it give?
A: The Potency was “inactive”.

Q: How did the Potency turn out when `Cc1ccc2nc(CN3CCN(S(=O)(=O)c4ccc(F)cc4)CC3)oc2c1` was run?
A: The Potency was “inactive”.

Q: With `CCCCC(=O)NC(c1ccc(N(C)C)cc1)c1ccc2cccnc2c1O` (centres undefined) as the compound, how does the Potency read?
A: Its Potency is inconclusive: 12.6 µM [inhibitor, partial curve, poor fit].

Q: With `Fc1ccc(C2CC(c3ccco3)=Nc3ccccc3S2)cc1` (centres undefined) as the compound, how does the Potency read?
A: The Potency was “inactive”.

Q: How did the Potency turn out when `COc1ccc(C(=O)N=c2sc3c(C)ccc(OC)c3n2C)cc1OC` was run?
A: Its Potency is “inactive”.

Q: How did the Potency turn out when `C=CCn1c(CCNC(=O)c2cccs2)nnc1SCC(=O)c1ccc(Cl)cc1` was run?
A: Its Potency is “inactive”.

Q: For `COc1ccc(CCNc2cc(C)nc3c(-c4ccccc4)cnn23)cc1OC`, which Potency is on record?
A: Its Potency is inconclusive: 11.2 µM [inhibitor, single point].

Q: `CCOc1cc(C2C(C(=O)OC)=C(C)NC3=C2C(=O)c2ccccc23)cc(Br)c1OCC` (centres undefined) was tested. Which Potency did it give?
A: The Potency was inconclusive: 3.55 µM [inhibitor, partial curve, poor fit].
